From PubChem BioAssay (NCATS)
Inconclusive results, whose numbers are uncertain, are shown with a selection of clear calls. For some assays here: Where the call is inconclusive, the potency comes from a doubtful curve fit. Activity calls are given as the source filed them. Unless noted, the call rests on the fitted dose curve; in most records, active means well fitted curve in the direction sought with a large enough effect; inconclusive means small, poorly fitted or top-dose-only effect, or another doubt; inactive means no such curve, though single readings can be large; an effect the other way counts as inactive or inconclusive.

Legend:
[1] = Cell Viability - NIH 3T3 (AID 541); details: NIH 3T3 cell viability, qHTS; activity change, negative = cytotoxicity: at 92.2 µM (top of the series);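 further: cells exposed to compound for 40 hours; plate controls were DMSO alone for no effect and tamoxifen positive control for full effect; nearly all actives have a fitted effect of over 25% in size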
Summary of the method: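 NIH 3T3 mouse embryo fibroblasts (1000 cells/well) were plated in complete medium and treated with compound for 40 hr at 37 °C. Viability was read as intracellular ATP by CellTiter-Glo luminescence; AC50 values came from Hill-equation fits of concentration-response data.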

[2] = MultiTox-Fluor Cytotoxicity Assay - LYMP1-001 - Live Cells (AID 947); details: LYMP1-001 lymphoblastoid cells, live-cell protease fluorescence viability; series mostly up to 92.2 µM;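 further: 0% = DMSO only and full inhibition = tetraoctylammonium bromide control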
[3] = target: ATP-dependent 6-phosphofructokinase (Trypanosoma brucei brucei) (UniProt O15648); experiment: qHTS Assay to Find Inhibitors of T. brucei phosphofructokinase: hit validation (AID 492961); further: potency means the concentration at half of the fitted maximal effect; details: T. brucei PFK, ADP-Glo luminescence; series mostly up to 51.4 µM
Chain of UniProt O15648 (O15648 whole entry, looked up): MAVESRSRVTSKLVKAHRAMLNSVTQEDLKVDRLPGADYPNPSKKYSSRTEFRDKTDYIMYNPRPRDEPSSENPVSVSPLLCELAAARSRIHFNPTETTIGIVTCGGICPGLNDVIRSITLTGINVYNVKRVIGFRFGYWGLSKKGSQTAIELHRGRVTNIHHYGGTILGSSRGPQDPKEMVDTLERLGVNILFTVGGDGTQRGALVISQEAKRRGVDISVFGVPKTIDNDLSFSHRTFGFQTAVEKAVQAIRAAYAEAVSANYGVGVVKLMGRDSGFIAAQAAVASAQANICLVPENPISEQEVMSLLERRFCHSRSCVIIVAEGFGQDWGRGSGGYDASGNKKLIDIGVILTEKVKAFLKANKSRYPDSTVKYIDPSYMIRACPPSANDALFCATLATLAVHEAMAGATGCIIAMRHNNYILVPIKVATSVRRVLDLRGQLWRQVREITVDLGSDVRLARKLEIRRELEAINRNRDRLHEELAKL
Summary of the method: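 Compounds titrated; %activity normalized to 0x and 1x enzyme controls, curve-fitted. Readout: ADP-Glo luminescence after 45 min room-temperature reaction of 1.25 nM PFK, 0.1 mM ATP, 0.5 mM F6P, pH 8.0.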

[4] = qHTS assay for small molecule disruptors of the mitochondrial membrane potential - 1 hr assay (AID 651754; calls by dose curve; further: potency means the concentration at half of the fitted maximal effect; nearly all actives have a fitted effect of over 35% in size); details: ratio change, negative = depolarisation: at 92.2 µM (top of the series)
Summary of the method: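 HepG2 cells, attached overnight at 37C, were exposed to compound or DMSO vehicle for 1 hr at 37C, 5% CO2, then stained with Mito-MPS dye for 30 min. Red aggregate versus green monomer fluorescence reports membrane potential.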

[5] = Quantitative High-Throughput drug screen in 47 multiple myeloma cell lines against the NCATS MIPE library collection: FR4_PLB cell viability assay (AID 1918924;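 further: 100% = DMSO-treated cells and 0% = wells with media only; nearly all actives have a fitted effect of over 35% in size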); details: FR4_PLB myeloma cells viability, CellTiter-Glo ATP, 48 h; series mostly up to 45.8 µM
Summary of the method: (§1)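 Inhibition of cell viability is measured here. Each line was plated at 500 cells per well, treated with MIPE 4.0 drugs, kept 48 hours at 37C, then assayed for ATP content by CellTiter-Glo luminescence.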

[6] = Quantitative High-Throughput drug screen in 47 multiple myeloma cell lines against the NCATS MIPE library collection: Delta47_JCRB cell viability assay (AID 1918925; further: nearly all actives have a fitted effect of over 45% in size); details: Delta47 myeloma viability, CellTiter-Glo ATP, 48 h; viability (% of DMSO): at 45.8 µM (top of the series)
Summary of the method: (§2)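 Steps: seed 500 cells per well; pin-transfer MIPE 4.0 library; incubate 48 h at 37C, 5% CO2, humidified; add CellTiter-Glo, 5 min room temperature; read luminescence.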

[7] = Quantitative High-Throughput drug screen in 47 multiple myeloma cell lines against the NCATS MIPE library collection: EJM_DSMZ cell viability assay (AID 1918926; further: potency means the concentration at half of the fitted maximal effect; nearly all actives have a fitted effect of over 30% in size); details: EJM myeloma cell viability, CellTiter-Glo ATP, 48 h; series mostly up to 45.8 µM
Summary of the method: as §2

[8] = Quantitative High-Throughput drug screen in 47 multiple myeloma cell lines against the NCATS MIPE library collection: AMO1_DSMZ cell viability assay (AID 1918927; further: potency means the concentration at half of the fitted maximal effect; nearly all actives have a fitted effect of over 30% in size); details: AMO1 myeloma cells viability, CellTiter-Glo ATP luminescence, 48 h; viability, % of DMSO: at 45.8 µM (top of the series)
Summary of the method: as §2

[9] = Quantitative High-Throughput drug screen in 47 multiple myeloma cell lines against the NCATS MIPE library collection: ARP1_JJKsccF8 cell viability assay (AID 1918928; further: nearly all actives have a fitted effect of over 40% in size); details: ARP1 myeloma cells viability, CellTiter-Glo ATP, 48 h; series mostly up to 45.8 µM
Summary of the method: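 Myeloma cells, 500 per well, were exposed to MIPE 4.0 drugs by pin transfer for 48 h at 37 °C, 5% CO2. Viability was read as ATP luminescence with CellTiter-Glo, normalised to DMSO-only (100%) and medium-only (0%) wells.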

[10] = Quantitative High-Throughput drug screen in 47 multiple myeloma cell lines against the NCATS MIPE library collection: ARD_JJKsccE7 cell viability assay (AID 1918929; further: potency means the concentration at half of the fitted maximal effect); details: ARD myeloma cell line viability, CellTiter-Glo, 48 h; viability: at 45.8 µM (top of the series)
Summary of the method: as §2

[11] = Quantitative High-Throughput drug screen in 47 multiple myeloma cell lines against the NCATS MIPE library collection: Karpas417_ECACC cell viability assay (AID 1918961); details: Karpas417 myeloma viability, CellTiter-Glo ATP luminescence, 48 h; viability (% of DMSO): at 45.8 µM (top of the series); further: potency means the concentration at half of the fitted maximal effect
Summary of the method: (§3)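 qHTS of the MIPE 4.0 collection: 500 myeloma cells/well, 48 h drug exposure at 37C in 5% CO2, then CellTiter-Glo for 5 min at room temperature before luminescence reading.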

[12] = Quantitative High-Throughput drug screen in 47 multiple myeloma cell lines against the NCATS MIPE library collection: KHM11_PLB cell viability assay (AID 1918962); details: KHM11 myeloma cell viability, CellTiter-Glo ATP luminescence, 48 h; viability, % of DMSO control: at 45.8 µM (top of the series);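 further: 0% = media only wells and 100% = DMSO treated cells; nearly all actives have a fitted effect of over 35% in size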
Summary of the method: as §1

[13] = Quantitative High-Throughput drug screen in 47 multiple myeloma cell lines against the NCATS MIPE library collection: JIM1_ECACC cell viability assay (AID 1918964; further: potency means the concentration at half of the fitted maximal effect); details: JIM1 myeloma viability, CellTiter-Glo ATP luminescence, 48 h; series mostly up to 45.8 µM
Summary of the method: as §2

[14] = Quantitative High-Throughput drug screen in 47 multiple myeloma cell lines against the NCATS MIPE library collection: INA6_PLB cell viability assay (AID 1918965;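 further: 100% = DMSO-only wells and 0% = media-only wells without cells; nearly all actives have a fitted effect of over 55% in size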); details: INA6 myeloma viability, CellTiter-Glo ATP luminescence, 48 h; viability (% of control): at 45.8 µM (top of the series)
Summary of the method: as §3

[15] = Quantitative High-Throughput drug screen in 47 multiple myeloma cell lines against the NCATS MIPE library collection: Karpas25_ECACC cell viability assay (AID 1918968; further: nearly all actives have a fitted effect of over 35% in size); details: Karpas25 myeloma viability, CellTiter-Glo ATP, 48 h; viability (% of control): at 45.8 µM (top of the series)
Summary of the method: as §2

[16] = Quantitative High-Throughput drug screen in 47 multiple myeloma cell lines against the NCATS MIPE library collection: KMS27_JCRB cell viability assay (AID 1918970); details: KMS27 myeloma cells, CellTiter-Glo ATP viability, 48 h; viability (% of DMSO): at 45.8 µM (top of the series); further: potency means the concentration at half of the fitted maximal effect; nearly all actives have a fitted effect of over 30% in size
Summary of the method: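 Each line is seeded at 500 cells per well and treated with library compounds for 48 hours under 37 °C, 5% CO2. CellTiter-Glo is then added for 5 min at room temperature before median relative luminescence is recorded.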

[17] = Quantitative High-Throughput drug screen in 47 multiple myeloma cell lines against the NCATS MIPE library collection: KMS12BM_JCRB cell viability assay (AID 1918971); details: KMS12BM myeloma viability, CellTiter-Glo ATP, 48 h; series mostly up to 45.8 µM
Summary of the method: as §3

[18] = Quantitative High-Throughput drug screen in 47 multiple myeloma cell lines against the NCATS MIPE library collection: KMS12PE_JCRB cell viability assay (AID 1918972); details: KMS12PE myeloma viability, CellTiter-Glo ATP, 48 h; series mostly up to 45.8 µM; further: potency means the concentration at half of the fitted maximal effect; nearly all actives have a fitted effect of over 30% in size
Summary of the method: as §3

[19] = Quantitative High-Throughput drug screen in 47 multiple myeloma cell lines against the NCATS MIPE library collection: KMS20_JCRB cell viability assay (AID 1918973); details: CellTiter-Glo ATP, 48 h; viability (% of DMSO): at 45.8 µM (top of the series); further: potency means the concentration at half of the fitted maximal effect; nearly all actives have a fitted effect of over 45% in size
Summary of the method: as §2

[20] = Quantitative High-Throughput drug screen in 47 multiple myeloma cell lines against the NCATS MIPE library collection: KMS21BM_JCRB cell viability assay (AID 1918974); details: ATP luminescence, 48 h; viability: at 45.8 µM (top of the series); further: potency means the concentration at half of the fitted maximal effect
Summary of the method: as §2
Tags describe the fitted curve by direction and shape.

O=C1C(c2[nH]c3ccccc3c2O)=Nc2ccccc21
inactive: Potency [2]
inconclusive: activity change, negative = cytotoxicity [1] -79% | Potency [3] 7.94 µM [falling, full curve] | Potency [4] 37.6 µM [inhibitor, partial curve]

CN(C)CC[C@H](c1ccc(Cl)cc1)c1ccccn1
inactive: Potency [5] | Potency [6] | Potency [9] | Potency [12] | Potency [14] | Potency [15]
inconclusive: Potency [7] 662 nM [cytotoxic, full curve, poor fit] | Potency [8] 3.7 nM [rising, full curve, poor fit] | Potency [10] 16.6 nM [rising, full curve, poor fit] | Potency [11] 3.7 nM [rising, full curve, poor fit] | Potency [13] 8.3 nM [rising, full curve] | Potency [16] 187 nM [rising, full curve, poor fit] | Potency [17] 3 nM [rising, full curve] | Potency [18] 7.4 nM [rising, full curve] | Potency [19] 11.8 nM [rising, full curve, poor fit] | Potency [20] 4.2 nM [rising, full curve]
